No constants are given. Whether binding was seen depends on the method and setting. Binding seen in cells or lysates may run through a third protein. Some results given as binding are weak or reduced against the parent protein; the word gives no strength. Where a sequence is shown, tags or fusion partners need not be part of it.
How the values were obtained:
Experiment in all cases: pull-down
[1] = target: T1, GST-UPF1 (wild type) (human) (UniProt Q92900)
T1 sequence: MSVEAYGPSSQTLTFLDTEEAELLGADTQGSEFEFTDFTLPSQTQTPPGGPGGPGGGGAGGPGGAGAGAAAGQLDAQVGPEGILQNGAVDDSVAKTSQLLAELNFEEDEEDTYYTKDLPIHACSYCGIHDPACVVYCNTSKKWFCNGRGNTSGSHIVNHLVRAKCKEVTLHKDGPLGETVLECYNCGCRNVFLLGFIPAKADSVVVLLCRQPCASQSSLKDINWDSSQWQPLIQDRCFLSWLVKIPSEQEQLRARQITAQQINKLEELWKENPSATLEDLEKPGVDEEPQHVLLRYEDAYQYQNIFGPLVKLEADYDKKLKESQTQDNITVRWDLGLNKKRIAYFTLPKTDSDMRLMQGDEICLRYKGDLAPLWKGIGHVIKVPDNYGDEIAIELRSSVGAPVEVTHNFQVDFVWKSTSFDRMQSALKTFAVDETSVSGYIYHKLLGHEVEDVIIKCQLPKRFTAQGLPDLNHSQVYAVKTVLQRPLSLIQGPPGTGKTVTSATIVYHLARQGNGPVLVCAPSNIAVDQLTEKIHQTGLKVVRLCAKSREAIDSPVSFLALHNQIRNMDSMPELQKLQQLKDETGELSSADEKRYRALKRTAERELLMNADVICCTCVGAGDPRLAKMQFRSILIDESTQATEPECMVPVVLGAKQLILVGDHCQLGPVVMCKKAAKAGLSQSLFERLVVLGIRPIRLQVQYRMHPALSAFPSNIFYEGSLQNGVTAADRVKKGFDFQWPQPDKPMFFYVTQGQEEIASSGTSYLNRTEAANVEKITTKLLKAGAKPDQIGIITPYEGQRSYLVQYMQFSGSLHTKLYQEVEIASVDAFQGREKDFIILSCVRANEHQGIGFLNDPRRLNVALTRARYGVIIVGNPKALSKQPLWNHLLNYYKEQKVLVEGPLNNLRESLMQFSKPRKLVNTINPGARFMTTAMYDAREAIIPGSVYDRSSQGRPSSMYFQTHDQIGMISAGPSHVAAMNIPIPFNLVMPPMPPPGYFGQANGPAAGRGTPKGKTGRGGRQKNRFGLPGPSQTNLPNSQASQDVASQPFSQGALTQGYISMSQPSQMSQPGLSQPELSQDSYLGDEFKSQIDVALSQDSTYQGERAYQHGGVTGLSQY

GST-Rex (HTLV-1) = target: T2, GST-Rex (HTLV-1) (UniProt P0C205)
T2 sequence: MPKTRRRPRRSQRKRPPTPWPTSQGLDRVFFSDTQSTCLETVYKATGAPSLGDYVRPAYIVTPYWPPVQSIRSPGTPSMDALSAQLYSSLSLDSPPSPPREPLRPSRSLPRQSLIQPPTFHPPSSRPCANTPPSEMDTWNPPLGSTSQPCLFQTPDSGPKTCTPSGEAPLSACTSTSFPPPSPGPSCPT

His-UPF3B = target: T3, His-UPF3B (UniProt Q9BZI7)
T3 sequence: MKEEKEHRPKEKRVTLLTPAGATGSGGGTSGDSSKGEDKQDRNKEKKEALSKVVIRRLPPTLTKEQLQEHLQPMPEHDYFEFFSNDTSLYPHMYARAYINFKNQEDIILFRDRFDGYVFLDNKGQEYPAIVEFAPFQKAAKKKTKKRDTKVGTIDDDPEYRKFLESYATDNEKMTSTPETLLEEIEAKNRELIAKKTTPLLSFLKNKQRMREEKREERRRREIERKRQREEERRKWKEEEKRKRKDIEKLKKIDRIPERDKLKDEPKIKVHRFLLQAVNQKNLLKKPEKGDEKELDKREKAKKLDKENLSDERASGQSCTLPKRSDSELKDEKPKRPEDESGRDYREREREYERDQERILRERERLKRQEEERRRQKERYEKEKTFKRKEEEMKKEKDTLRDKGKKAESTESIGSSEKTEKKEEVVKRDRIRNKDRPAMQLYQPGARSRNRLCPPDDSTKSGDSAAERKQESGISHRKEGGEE

With “p21Rex (Rex lacking N-terminal aa1-78) (from UniProt P0C205-1 79-189) (domain or fragment)” the binding [1] was “no binding”.

B1: Upf1 (endogenous) (protein, UniProt Q92900 1-1129)
chain: MSVEAYGPSSQTLTFLDTEEAELLGADTQGSEFEFTDFTLPSQTQTPPGGPGGPGGGGAGGPGGAGAGAAAGQLDAQVGPEGILQNGAVDDSVAKTSQLLAELNFEEDEEDTYYTKDLPIHACSYCGIHDPACVVYCNTSKKWFCNGRGNTSGSHIVNHLVRAKCKEVTLHKDGPLGETVLECYNCGCRNVFLLGFIPAKADSVVVLLCRQPCASQSSLKDINWDSSQWQPLIQDRCFLSWLVKIPSEQEQLRARQITAQQINKLEELWKENPSATLEDLEKPGVDEEPQHVLLRYEDAYQYQNIFGPLVKLEADYDKKLKESQTQDNITVRWDLGLNKKRIAYFTLPKTDSGNEDLVIIWLRDMRLMQGDEICLRYKGDLAPLWKGIGHVIKVPDNYGDEIAIELRSSVGAPVEVTHNFQVDFVWKSTSFDRMQSALKTFAVDETSVSGYIYHKLLGHEVEDVIIKCQLPKRFTAQGLPDLNHSQVYAVKTVLQRPLSLIQGPPGTGKTVTSATIVYHLARQGNGPVLVCAPSNIAVDQLTEKIHQTGLKVVRLCAKSREAIDSPVSFLALHNQIRNMDSMPELQKLQQLKDETGELSSADEKRYRALKRTAERELLMNADVICCTCVGAGDPRLAKMQFRSILIDESTQATEPECMVPVVLGAKQLILVGDHCQLGPVVMCKKAAKAGLSQSLFERLVVLGIRPIRLQVQYRMHPALSAFPSNIFYEGSLQNGVTAADRVKKGFDFQWPQPDKPMFFYVTQGQEEIASSGTSYLNRTEAANVEKITTKLLKAGAKPDQIGIITPYEGQRSYLVQYMQFSGSLHTKLYQEVEIASVDAFQGREKDFIILSCVRANEHQGIGFLNDPRRLNVALTRARYGVIIVGNPKALSKQPLWNHLLNYYKEQKVLVEGPLNNLRESLMQFSKPRKLVNTINPGARFMTTAMYDAREAIIPGSVYDRSSQGRPSSMYFQTHDQIGMISAGPSHVAAMNIPIPFNLVMPPMPPPGYFGQANGPAAGRGTPKGKTGRGGRQKNRFGLPGPSQTNLPNSQASQDVASQPFSQGALTQGYISMSQPSQMSQPGLSQPELSQDSYLGDEFKSQIDVALSQDSTYQGERAYQHGGVTGLSQY
B1 was tested, and the binding (GST-Rex (HTLV-1)) was “binds”.

B2: FLAG-Rex (wild-type p27Rex of HTLV-1, from Rex-pME-FLAG) (protein, UniProt P0C205 1-189)
chain: MPKTRRRPRRSQRKRPPTPWPTSQGLDRVFFSDTQSTCLETVYKATGAPSLGDYVRPAYIVTPYWPPVQSIRSPGTPSMDALSAQLYSSLSLDSPPSPPREPLRPSRSLPRQSLIQPPTFHPPSSRPCANTPPSEMDTWNPPLGSTSQPCLFQTPDSGPKTCTPSGEAPLSACTSTSFPPPSPGPSCPT
B2 was tested, and the binding [1] was “binds”.

B3: Rex (from the SRα-Rex plasmid) (protein, UniProt P0C205 1-189)
chain: MPKTRRRPRRSQRKRPPTPWPTSQGLDRVFFSDTQSTCLETVYKATGAPSLGDYVRPAYIVTPYWPPVQSIRSPGTPSMDALSAQLYSSLSLDSPPSPPREPLRPSRSLPRQSLIQPPTFHPPSSRPCANTPPSEMDTWNPPLGSTSQPCLFQTPDSGPKTCTPSGEAPLSACTSTSFPPPSPGPSCPT
In the case of B3, the binding (His-UPF3B) is reported as “binds”.

Source: paper PMC8875924
